We go through 67 compounds from PubChem BioAssay AID1645882 (National Center for Advancing Translational Sciences (NCATS), 2021).

Screen size: about 16,000 compounds; about 120 (0.75%) were called active. About 4% were inconclusive and are not listed. Calls come from the whole dose curve; as a rule, active = well fitted inhibition curve with a large enough effect; inconclusive = small, poorly fitted or top-dose-only effect; inactive = no such curve, though single readings can be large or run the other way. This is one part of the list.

UniProt O95398, sequence (O95398 whole entry, looked up): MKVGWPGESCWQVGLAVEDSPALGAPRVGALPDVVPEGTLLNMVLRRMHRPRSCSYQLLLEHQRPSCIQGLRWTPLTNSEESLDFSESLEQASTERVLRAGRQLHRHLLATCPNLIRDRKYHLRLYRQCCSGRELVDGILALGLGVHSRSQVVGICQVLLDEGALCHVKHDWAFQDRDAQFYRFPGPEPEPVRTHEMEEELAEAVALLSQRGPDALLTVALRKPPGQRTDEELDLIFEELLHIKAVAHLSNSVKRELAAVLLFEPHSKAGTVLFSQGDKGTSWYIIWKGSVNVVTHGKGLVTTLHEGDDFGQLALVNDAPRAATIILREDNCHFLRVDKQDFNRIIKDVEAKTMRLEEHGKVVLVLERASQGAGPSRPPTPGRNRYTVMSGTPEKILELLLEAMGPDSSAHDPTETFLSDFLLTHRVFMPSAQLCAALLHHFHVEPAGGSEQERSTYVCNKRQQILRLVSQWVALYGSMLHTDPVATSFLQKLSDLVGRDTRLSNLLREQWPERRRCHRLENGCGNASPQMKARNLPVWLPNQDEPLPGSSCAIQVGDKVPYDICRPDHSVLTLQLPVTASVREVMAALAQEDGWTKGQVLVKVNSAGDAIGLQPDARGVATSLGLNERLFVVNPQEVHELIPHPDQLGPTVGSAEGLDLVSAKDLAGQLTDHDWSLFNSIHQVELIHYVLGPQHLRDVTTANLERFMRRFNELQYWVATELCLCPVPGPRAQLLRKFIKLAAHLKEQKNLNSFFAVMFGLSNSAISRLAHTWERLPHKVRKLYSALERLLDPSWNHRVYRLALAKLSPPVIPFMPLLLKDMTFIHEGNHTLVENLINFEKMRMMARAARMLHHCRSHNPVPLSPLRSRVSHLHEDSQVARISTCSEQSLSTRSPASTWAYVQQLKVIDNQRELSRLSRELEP

In the assay the target is Rap guanine nucleotide exchange factor 3 (Homo sapiens) (UniProt O95398). Put plainly: Validation qHTS for antagonist of cAMP-regulated guanine nucleotide exchange factor 3 (EPAC1).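 Note: plate controls were DMSO for no effect and ATA control for full effect; nearly all actives have a fitted effect of over 75% in size.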 To be noted: EPAC1 Rap1B-BODIPY-GDP exchange, fluorescence; series mostly up to 150 µM; activity change, negative = inhibition: at the top concentration. An outline of the steps:
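Nucleotide exchange followed as fluorescence loss when BODIPY-GDP leaves Rap1B (480 nm excitation, 540 nm emission), read at 5 min intervals over 30 min. Reaction: 100 nM EPAC1, 250 nM RAP1B-BODIPY-GDP, 50 uM GDP; ATA and DMSO define normalization.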
(qHTS replaces the single test concentration by a dilution series.)
As for `O=c1cc(-c2ccccc2)oc2cccc(O)c12`, the activity change, negative = inhibition result is “inactive”.
The value for `O=C(NC1CCN(CCc2c[nH]c3ccccc23)CC1)c1ccccc1` was inactive: 17.9%; that for `C=C[C@H](CC(C)C)N(Cc1ccccc1)S(=O)(=O)N(Cc1ccccc1)[C@H](C=C)CC(C)C` was inactive: -1.4%; that for `COc1cccc(Cn2c(=O)c(-c3cn(C)c4ccccc34)nc3cnc(N4CCOCC4)nc32)c1` was inactive: 9.74%.
Regarding `C[C@@H]1C(=O)NC2=Nc3cccc(Cl)c3CN21`, the activity change, negative = inhibition entry is “inactive”.
For the compound `Cc1ccc2cccc(O)c2n1`, the “activity change, negative = inhibition” value is inactive: 11.2%.
Regarding `O=c1c(CCc2ccccc2)nc2cnc(N3CCNCC3)nc2n1C1CC1`, the “activity change, negative = inhibition” value was inactive: 5.92%.
The value for `N#Cc1cccc(CN2CCC(=O)N([C@H](CO)Cc3ccccc3)CC2)c1` was inactive: 7.48%; that for `COc1ccc(CNc2ncncc2-c2ccccc2OC)c(OC)c1` was inactive: 7.6%.
Consider `COc1ccc2c(c1)OC(C)CN(CCC(=O)NCC1OCCc3ccccc31)C2` (configuration not stated), for which the “activity change, negative = inhibition” value was inactive: -1.63%.
`CCNC(=O)/C=C/c1cccc(Br)c1`: the “activity change, negative = inhibition” value was inactive: 5.69%.
For `NC1CCN(c2nc3c(cc2F)c(=O)c(C(=O)O)cn3-c2ccc(F)cc2F)C1` (configuration not stated), the “activity change, negative = inhibition” value was inactive: 15.8%.
As for `NCCO/C=C/[C@H](N)C(=O)O`, the “activity change, negative = inhibition” value is inactive: 6.71%.
As to `C=Cc1ccc(C(=O)N2CCc3c(cnc(C)c3CNC(=O)c3ccc4c(c3)OCO4)C2)cc1`, the “activity change, negative = inhibition” value is inactive: -1.77%.
The value for `N#CCCn1c(=O)c(-c2ccc(Cl)cc2)nc2cnc(Oc3ccccc3)nc21` was inactive: 10.8%.
To `CCCCC(C=O)NC(=O)C(CC(C)C)NC(=O)OCc1ccccc1` (configuration not stated) belongs inactive: -9.71%; to `O=C(c1cnn(-c2nccc(-c3ccco3)n2)c1C1CC1)N1CCCCC1c1cccnc1` (configuration not stated), inactive: 10.8%; to `CC(=O)Oc1cccc(C)c1`, inactive: 4.06%.
As to `COc1ccc(Cl)cc1-c1cc2c(c(OC)c1)OCCN(Cc1cccn1-c1nccs1)C2`, the “activity change, negative = inhibition” value was inactive: 22%.
With `c1cncc(-c2ccc3ncnc(N4CCNCC4)c3c2)c1`, the “activity change, negative = inhibition” value was inactive: 10.3%.
Regarding `CCCOc1ccccc1-c1nc2n[nH]nc2c(=O)[nH]1`, the activity change, negative = inhibition result is “inactive”.
Take `CN(C)c1ccc(-c2cncnc2NCCN2CCOCC2)cc1`: the “activity change, negative = inhibition” value was inactive: -2.77%.
Regarding `COc1ccccc1N1CCN(C[C@@H]2CN3C(=O)N(C)c4ccccc4C3=N2)CC1`, the “activity change, negative = inhibition” value was inactive: 11.4%.
With `Cc1cc2c(cc1C)N[C@]1(C[C@H]3CCCC(=O)N4CC[C@@H](C1)[C@@H]34)C(=NC1CCCCC1)N2`, the “activity change, negative = inhibition” value was inactive: 16.7%.
In the case of `O=Cc1cc2ccccc2cc1O`, the “activity change, negative = inhibition” value was inactive: 15.1%.
Take `COc1ccc(C2CC(=O)c3c(O)cc(OC4OC(COC5OC(C)C(O)C(O)C5O)C(O)C(O)C4O)cc3O2)cc1O` (configuration not stated): the “activity change, negative = inhibition” value is inactive: 7.5%.
As for `O=C(O)CO.[NH2-].[NH2-].[Pt+2]`, the “activity change, negative = inhibition” value is inactive: 8.35%.
`Cn1cc(-c2nc3cnc(N4CCNCC4)nc3n(CCC#N)c2=O)c2ccccc21`: the “activity change, negative = inhibition” value was inactive: -1.43%.
The value for `COc1cccc(C(=O)NCCN2CCN(c3ccc(Cl)cc3)CC2)c1` was inactive: -0.462% [at 75.8 µM]; that for `Cc1cccc(-c2cccc(C(=O)N3CCc4c(cnc(C)c4CNC(=O)c4cncs4)C3)c2)c1` was inactive: -0.992%.
As for `COc1ccc2[nH]cc(CCNc3ncncc3-c3cccnc3)c2c1`, the “activity change, negative = inhibition” value was inactive: -17.2%.
The value for `N#Cc1ccc(CN2CCC3(CC2)CCN(C(=O)c2csnn2)CC3)cc1` was inactive: 17.1%; that for `COC1=C(OC)C(=O)C(C/C=C(\C)CC/C=C(\C)CC/C=C(\C)CC/C=C(/C)CC/C=C(\C)CC/C=C(\C)CC/C=C(\C)CC/C=C(\C)CC/C=C(\C)CCC=C(C)C)=C(C)C1=O` was inactive: 11.7%.
As for `COc1cc(-c2noc(C)c2C#Cc2nccn2C)cc(OC)c1OC`, the “activity change, negative = inhibition” value is inactive: 8.12%.
Regarding `CCCCCCCCCCCC(=O)O[C@H](CC(=O)O)C[N+](C)(C)C`, the “activity change, negative = inhibition” value was inactive: 9.8%.
The value for `COc1ccc(-c2cc(C(=O)N3CCc4c(cnc(C)c4CNC(=O)c4ccsc4)C3)[nH]n2)cc1` was inactive: 13.7%.
For the compound `Cc1nc2cc(NC(=O)[C@@H]3C[C@@H](Sc4ccccn4)CN3Cc3ccccc3)ccc2s1`, the “activity change, negative = inhibition” value was inactive: -3.33%.
The value for `Cc1cccc2c(C(O)c3c[nH]c4c(C)cccc34)c[nH]c12` was inactive: -21.1%.
For the compound `CCO[C@H]1[C@H](NC(=O)c2cccnc2)c2ccccc2C12CCN(C(=O)c1ccoc1)CC2`, the “activity change, negative = inhibition” value is inactive: 10.7%.
In the case of `COc1cc(OC)c2c(c1Cl)OC1(C2=O)C(O)=CC(=O)CC1C` (configuration not stated), the “activity change, negative = inhibition” value is inactive: 5.57%.
The value for `O=C1NC(=O)C(c2ccccc2)(c2ccccc2)N1` was “inactive”; that for `Cc1nc2cnc(N3CCOCC3)nc2n(C)c1=O` was inactive: 4.28%.
Consider `COc1ccc(CNc2ncncc2-c2cccc(NS(C)(=O)=O)c2)c(OC)c1`, for which the “activity change, negative = inhibition” value was inactive: -13.8%.
Regarding `NC(=O)NNc1ccccc1`, the activity change, negative = inhibition result is “inactive”.
Consider `CN1Cc2c(N)cccc2C(c2ccccc2)C1` (configuration not stated), for which the activity change, negative = inhibition entry was “inactive”.
As to `Cc1cc2c(cc1C)N[C@]1(C[C@H]3CCC(=O)N4CC[C@@H](C1)[C@@H]34)C(=Nc1ccccc1C)N2`, the “activity change, negative = inhibition” value is inactive: -1.23%.
To `COc1ccc(C2(C(=O)NCC3Cc4cccc(-c5cccnc5)c4O3)CCCC2)cc1` (configuration not stated) belongs inactive: -12.9%.
For `FC(F)(F)COCC(F)(F)F`, the “activity change, negative = inhibition” value is inactive: -0.876%.
To `COc1cccc2c1C(=O)CC(c1ccccc1)O2` (configuration not stated) belongs inactive: -14.2%; to `O=C(CN1Cc2ccccc2OC(c2ccsc2)C1)N1CCN(Cc2ccc3c(c2)OCO3)CC1` (configuration not stated), inactive: -29.7%; to `COc1ncc2nc(C)c(=O)n(CCc3ccccc3)c2n1`, inactive: 6.32%.
`CSc1ccc2c(c1)[C@H](N1CCN(C)CC1)Cc1ccccc1S2`: the “activity change, negative = inhibition” value was inactive: -16%.
As for `CCC1CN(CCNC(=O)c2ccc(C#CC(C)(C)O)cc2)Cc2cc(OC)ccc2O1` (configuration not stated), the “activity change, negative = inhibition” value is inactive: -3.4%.
For the compound `O=S1(=O)CCOC[C@H](CC2CCCCC2)N1Cc1cccc(Cl)c1`, the “activity change, negative = inhibition” value was inactive: -27.4%.
Regarding `Cc1ccccc1-c1ccc2ncnc(NCCN3CCOCC3)c2c1`, the “activity change, negative = inhibition” value is inactive: 4.83%.
As for `O=C(c1ccccc1)c1ccc2n1CCC2C(=O)O` (configuration not stated), the activity change, negative = inhibition result is “inactive”.
In the case of `CCOC(=O)[C@@](C)(N)Cc1ccc(O)c(O)c1`, the “activity change, negative = inhibition” value is inactive: 23.6% [at 75.8 µM].
In the case of `CC(=O)C[C@H]1c2cc(C(F)(F)F)ccc2S(=O)(=O)N1C1CCCCC1`, the “activity change, negative = inhibition” value was inactive: -7.97%.
As for `Cc1ccc(C(=O)N2CCOc3ccc(CN4CCN(Cc5ccccn5)CC4)cc3C2)cc1`, the “activity change, negative = inhibition” value was inactive: -2.43%.
To `CNC(=O)[C@H]1O[C@@H](n2cnc3c(NCc4cccc(I)c4)nc(Cl)nc32)[C@H](O)[C@@H]1O` belongs inactive: 3.46%; to `COc1cc(=O)n2c(c1C(=O)N(C)Cc1nonc1C)CCN(Cc1cccc(Cl)c1)CC2`, inactive: 15.4%; to `COc1ccc(OC)c(-c2ccnc(-n3ncc(C(=O)N(C)CCc4ccccn4)c3C)n2)c1`, inactive: 18.1%.
As to `CC(=O)N1CCC2(CCCN(Cc3ccccc3)C2)CC1`, the “activity change, negative = inhibition” value is inactive: 23.7%.
In the case of `COc1ccc(C(=O)C[n+]2cc(Br)cc(Br)c2)cc1`, the “activity change, negative = inhibition” value is inactive: 13.6%.
As to `CNCCCCc1cnc(C)c2[nH]c3ccccc3c12`, the “activity change, negative = inhibition” value is inactive: -0.902%.
Take `CCOC(=O)NNc1ccc(N(CC)CC(C)O)nn1` (configuration not stated): the “activity change, negative = inhibition” value was inactive: 37.2%.
With `COc1ccccc1C1CN(Cc2cccc3nccnc23)Cc2ccccc2O1` (configuration not stated), the “activity change, negative = inhibition” value was inactive: 3.13%.
